# The supplement of paper PMC11417369
# This is one part of the list.
# System: PfSIP2 AP2 domain 1 (GST-tagged)
# Test: gcPBM binding intensity (ln(normalized median fluorescence intensity)); higher = stronger DNA binding
# In short: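 An Agilent 4 × 180k array of primer-extended double-stranded 36-bp intergenic genomic probes, with negative controls, was incubated for 1 h with GST-tagged P. falciparum DNA-binding domains expressed in E. coli. Alexa488 anti-GST antibody detected bound protein, scanned at 488 nm. Binding intensity is the highest Masliner-normalised natural-log median intensity across replicate spots of either probe orientation.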
row,Sequence,gcPBM binding intensity (ln)
1,AAAAAAAAAAAAAATACACACAAATAATAAAAATAA [CACACA_site1431],7.61
2,ATATATATATATGTATGTACATAATATTTTTTTTAT [XGTACX_site5551],8.87
3,TGTACGTTTTTTAACACACACACAAAAAAAAAAAAA [CACACA_site6006],7.11
4,TTAAATATCCATATTTCACACATTTCGATATATATA [CACACA_site4208],6.88
5,ACTGTACTATAAAATACACACATATAAATATAAATA [CACACA_site3009],7.35
6,TATTTTAGAGAAAAAAATAAATTACAAAATGTTAGG [CACACA_negctrl_site1645],6.88
7,ATAATGTCATAATTATATCCTTTGGCATAAAATAAA [XGTACX_negctrl_site574],6.69
8,CCTAAATAAATGGACACACACATATTTATATTTATA [CACACA_site6789],7.12
9,GAATGTAAATATTAAAGTACACAGAATATATCTTCA [XGTACX_site8149],6.94
10,TATAATATTATATAATGTACGCATTTATTATTTAAA [XGTACX_site8326],7.12
11,AAATAAAATCATGAATGTACACAAAAATTATTGCAA [XGTACX_site5691],7.11
12,TTTGAAGGAAGGGGGGGAGGGGCCATAACAAAGGAA [GTGCAC_negctrl_site408],9.2
13,TATTACAAAAATGTGTTATTATATAAACGTATAGAG [XGTACX_negctrl_site529],7.1
14,TTTCTTATATTATATAAATATATAGATGTTAATGGT [CACACA_negctrl_site706],7.39
15,AATATAATATAATGCACACATAAAAAAAAAAAAAAA [CACACA_site304],7.47
16,TTAATATTAAAATATAAACACACAAAATTCAATTAT [CACACA_site9262],6.94
17,AGTAAATATATTATATGTACGTATCATAAAATATAT [XGTACX_site1567],7.18
18,ATTTTTTTTTTTTTTTTTAATTTATGTTGTTATTTT [CACACA_negctrl_site944],6.74
19,GTAAAATAAATAATATAAATAAAATGAAATGAAACA [TGCATGCA_negctrl_site519],6.93
20,AAGTTTAAAGGAATTACACAAACAAGCAAATATATA [CACACA_negctrl_site857],6.98
21,ATTATATAATAATAAAGTACTAATATTTTTAAAAGA [XGTACX_site235],6.94
22,ATATATATATATATAGTGCAAATAAAAAATAGACAA [GTGCAC_site9796],9.46

row,Sequence,gcPBM binding intensity (ln)
1,TAATATATTAAAAGAAGTACATTTCTGATTTAATAG [XGTACX_site6403],6.99
2,GAACCGTTTTTATGTAGTACATATGTATATATATAT [XGTACX_site1577],9.06
3,TTATTTATATATTGCCCACACACATGTGATTATTTA [CACACA_site1715],6.92
4,AATATTTTTTGTTTTACACACATATATAAATATATA [CACACA_site3602],7.03
5,GAATTATATACTTATTGTACAAAAAAAAAAAAAAAA [XGTACX_site3193],7.09
6,TATTCCCCCCAACACACACACACACCGACATACCAC [CACACA_site8723],8.96
7,ATAAACATGTATATATTAAAAAAAAAAAAAAAAAAT [CACACA_negctrl_site92],6.83
8,GCAAGGTCCACACTGGTGCATTAAAAATAAAATATA [GTGCAC_site9956],10.4
9,TTTTTTAAATATATATGTACATATATCTATATATAT [XGTACX_site3461],7.73
10,TTTATAATTTATAGGCGGACAGGAAAATTTTATAAA [XGTACX_site6955],7.16
11,TTTTTAATTTTTTTCACACATATATAAATACAAATA [CACACA_site5530],7.13
12,AAATTACAAATAAAATGTACTCATGTTTTTATTATA [XGTACX_site7223],6.9
13,TGAACAGGTCATAATTTACACACTATATATTTTATT [CACACA_site8123],6.87
14,TACAGGAATATTTTTACACACTAAAAGTTATAAACT [CACACA_site6876],6.72
15,TTTTTCTTTTTTTGTTGTACATTTTGTAATATTTAC [XGTACX_site4102],7.16
16,TATAATATATATGTATGTACGTATGTATGATTTTGT [XGTACX_site1164],7.39
17,AAGAAAAATTCTTCACGTACAAATAATTATATATAT [XGTACX_site7217],7.34
18,TTTTACTATGATATTTATATATCTATATATGTATAT [XGTACX_negctrl_site499],6.87
19,AAAAATAAAAATGAGTGTACTTTAAGCCCTACACTT [XGTACX_site828],6.91
20,TATAATATTATAGTTTGTACGAAAATAATATATTTA [XGTACX_site8673],7.14
21,ACGATGTTCATCACTACACACACAAAGAAATATATA [CACACA_site8859],6.93
22,AACCAAAATTTTTGTCGTACAAAAGAGCAAATGTAG [XGTACX_site6472],7.41

row,Sequence,gcPBM binding intensity (ln)
1,TGATTATAGACACGCGCACACACAACAAAAAAAAAA [CACACA_site9179],7.34
2,TAAGTTTGTGCAAGTGGTACATATATATAAATTTAT [XGTACX_site5944],7.29
3,TTTACATAAACTGGTAGTACATAATATGGCTTAAAA [XGTACX_site5002],7.24
4,TTAGCAACTATTACTACACACATTTGTATTTAATTT [CACACA_site4961],6.86
5,TGGATTTTTTGATTTTTGTTTTTCTTCTTTCCCCCC [CACACA_negctrl_site1471],8.56
6,ACAGTATAAAAATAAGCACACACACTAATATATATT [CACACA_site8212],7.07
7,TAAAATATATTTTTCTGTACACAAAAATATATTAAA [XGTACX_site2813],7.11
8,TATATATTAATATATGCATGTTAATATATTATGAAA [TGCATGCA_site61],6.9
9,AATGTAAAACGAAATGCACACTATGGAAAATATAAA [CACACA_site4559],7.96
10,TAATAATAATTAAAATGAGATAAATAAATATATATA [TGCATGCA_negctrl_site322],7.38
11,TCTTTATATCATCTTTCTAAATATATATATATATAA [CACACA_negctrl_site77],7.29
12,TTATATATTTATAAATGTACGTATAAGAATTTAATT [XGTACX_site8541],7.24
13,CTATTAATGTACTCTACACACATATAAGAGGACATT [CACACA_site471],7.21
14,TACATATTTGTATATGCACACATAAATTTTTCCATT [CACACA_site9148],7.51
15,AAATATTTATACCACACACACATACCTCTATTTGTA [CACACA_site6957],7.06
16,TTTTTTTTTTTTTAATGTACCCATGGGCACATAGGT [XGTACX_site486],7.31
17,TAAATATAGGGTAATAGTACATAATTATATTCTTTT [XGTACX_site3883],6.76
18,TATATTTATATATTAGTGCACTTTTTGTTAATTTTT,10.7
19,AATGGATTAGCTAGCACACACAAAAAAAAAAAAAAA [CACACA_site3031],7.03
20,CAAAATTTATATAATAGTACACATGATCTTTTTTCT [XGTACX_site8956],6.81
21,TATATATATATATAATGTACGAATAGAAAAAAAAAA [XGTACX_site7231],9.04
22,GATACAAAATGGGGAACACACACATATATATATATA [CACACA_site9278],9.26

row,Sequence,gcPBM binding intensity (ln)
1,TATATATATATATATATATATATTAATATATATTAC [XGTACX_negctrl_site103],9.16
2,TAAAGGCAAACAAACACACACACATATATACCTATA [CACACA_site7078],7.06
3,ATAACAAAATAAAACACACACACAAATGTACCTATA [CACACA_site7190],7.04
4,TATTTATAAATATAAACACACAACATTATATGCATA [CACACA_site5748],7.02
5,AAAAGTGTATGTAGGTGTACTTTTTATTTCTTCTTT [XGTACX_site8819],7.12
6,ATTTATGATATGTAAACATGCATAAAAATTTCAAAA [TGCATGCA_site858],6.86
7,AATGGGTTAGCACATACACACCAATATATTATATAT [CACACA_site9011],7.23
8,TATAAACTTAATTTGAGTACTTAATAATAATTTTGT [XGTACX_site3730],7.09
9,TATATATGTATATATGGTACAGAATATTCTACATTA [XGTACX_site5077],6.91
10,CATCCACATATATGTACACACATATATATATATATA [CACACA_site2964],9.58
11,TACCACATCGGTAAATGTACTTATAAAAAAAAAAAA [XGTACX_site3364],6.83
12,CAATCATTTTATTGTTGTACAGTAATTATGAATTCA [XGTACX_site7508],6.83
13,TTGGTACCTATAGATACACACATATATACATATATA [CACACA_site3402],7.03
14,TAAGAGTAGTTATATACACACATGTATATTATAGTT [CACACA_site6815],6.84
15,TATATATATATATTATGTACGTATCAGTTTGTATGT [XGTACX_site695],9.22
16,CACGACATTAACAATACATGCAGAAAAACAAAAAAT [TGCATGCA_site689],7.15
17,TTATAAATTAGAGGTACACACAAAAAAAAAAAGAAA [CACACA_site6740],7.27
18,ATTTTTAATATTATTACACACACTAAAAAAAAAAAA [CACACA_site1067],7.06
19,TATAAGAGAAGAAGAAAAAAAAGGTTTCTATAGAAA [XGTACX_negctrl_site421],6.59
20,CATATAGTAATATATACACACACTTGTCTTGTAAAA [CACACA_site8238],6.89
21,AAGAAGCATAAATGTACACACATATTTATATATTAA [CACACA_site1332],7.04
22,ATATTTATAATTTTTTGTACACATTTTTTAAAGATA [XGTACX_site1784],7.27
